Data from PubChem BioAssay AID504832 (National Center for Advancing Translational Sciences (NCATS), 2011).
In all, about 310,000 compounds went through this assay and about 18,000 (5.8%) were called active. The shares of active, inactive and inconclusive entries below differ from those in the screen. Calls come from the whole dose curve; as a rule, active = well fitted inhibition curve with a large enough effect; inconclusive = small, poorly fitted or top-dose-only effect, or another doubt; inactive = no such curve, though single readings can be large or run the other way. Potencies of inconclusive entries are left out as doubtful fits.

test: Primary qHTS for delayed death inhibitors of the malarial parasite plastid, 48 hour incubation; conditions: P. falciparum luciferase growth in erythrocytes; series mostly up to 28.7 µM; activity change, negative = inhibition: at the top concentration
Outline: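 Erythrocytes infected with P. falciparum carrying an integrated firefly luciferase reporter (2% hematocrit, 0.1% parasitemia final) were exposed to compounds in RPMI 1640 with 0.5% Albumax at 37 C, 5% CO2. Growth inhibition was scored as reduced luminescence.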
% is set by controls: 0 for no effect and ±100 for the full control effect; potency is the fitted concentration of half-maximal effect; tags give direction and shape of the fitted curve.

| Structure (SMILES) | Potency | activity change, negative = inhibition |
| --- | --- | --- |
| CCN1C(=O)[C@H]2[C@@H](c3ccc(C)cc3)N3C(=O)N(c4ccc(C(F)(F)F)cc4)C(=O)[C@@]3(CC)[C@H]2C1=O | inconclusive [inhibitor, single point] | – |
| O=C(COC(=O)/C=C/c1cccc(F)c1)Nc1ncccn1 | – | inactive: 95.5% |
| CCC(SC1=NCCS1)C(=O)Nc1nnc(-c2ccccc2OC)s1 (configuration not stated) | – | inactive: 10.4% |
| Cc1ccc(-n2c(-c3ccccc3)cc(=O)nc2C)cc1 | inconclusive [inhibitor, single point] | – |
| CCC(C)(C)NC(=O)CN(C(=O)c1snc(C(N)=O)c1N)c1ccc2c(c1)OCCO2 | – | inactive: -12.5% |
| Cc1ccc(S(=O)(=O)NCCC(=O)Oc2ccc3ccc(=O)oc3c2)cc1 | – | inactive: 18.8% |
| O=C(COC(=O)c1ccc(O)cc1O)NC1CCCCCC1 | – | inactive: 34.4% |
| COc1cccc(C(C(=O)NC2CCCC2)N(C(=O)c2csnn2)C2CC2)c1 (configuration not stated) | – | inactive: 28% |
| CCOCc1[nH]c(=S)[nH]c(=O)c1Cc1ccc(OC(C)C)cc1 | inconclusive [inhibitor, single point] | – |
| CC(NC(=S)NC1CCCCC1)C(c1cccs1)N1CCOCC1 (configuration not stated) | inconclusive [inhibitor, partial curve, poor fit] | – |
| CC(C)N1CCC(N2CCN(C3CCCCC3)CC2CCO)CC1 (configuration not stated) | – | inactive: 7.25% |
| Cc1cc(C)cc(N(CC(=O)NC2CCCC2)S(=O)(=O)c2c(C)[nH]c(=O)[nH]c2=O)c1 | – | inactive: -12.1% |
| O=C(NCC1CCCCC1)c1cc(S(=O)(=O)N2CCOCC2)ccc1F | inconclusive [inhibitor, single point] | – |
| O=C(CCc1ccc(S(=O)(=O)N2CCOCC2)cc1)N/N=C/c1ccc(F)cc1F | inconclusive [inhibitor, single point] | – |
| CN(CCO)c1ccc(-c2n[nH]c(=O)c3ccccc23)cc1[N+](=O)[O-] | inconclusive [inhibitor, single point] | – |
| CC(=O)O[C@@]12CO[C@@H]1C[C@H](OC1OCC(O)C(O)C1O)[C@@]1(C)C(=O)[C@H](O)C3=C(C)[C@@H](OC(=O)[C@H](O)[C@@H](NC(=O)c4ccccc4)c4ccccc4)C[C@@](O)([C@@H](OC(=O)c4ccccc4)C12)C3(C)C (some centres not stated) | inconclusive [inhibitor, full curve, poor fit] | – |
| Cc1ccnc2c1ccc1c(C)ccnc12 | active: 2.62 µM | – |
| CCC(=O)c1ccc(OCC(=O)N2CCc3cc(OC)c(OC)cc3C2)cc1 | inconclusive [inhibitor, partial curve, poor fit] | – |
| CCOC(=O)c1cnc2c(c(C)nn2CC)c1NC1CC1 | inconclusive [inhibitor, partial curve, poor fit] | – |
| CCOc1ccc(C(=O)C2CCN(CC(=O)Nc3nccs3)CC2)cc1 | inconclusive [inhibitor, single point] | – |
| COc1ccccc1-c1cc(C(=O)N/N=C\c2cn(C)nc2C)c2ccccc2n1 | inconclusive [inhibitor, single point] | – |

| Structure (SMILES) | Potency | activity change, negative = inhibition |
| --- | --- | --- |
| COC(=O)c1cc(CSc2nnc(NC3CCCCC3)s2)oc1C | inconclusive [inhibitor, partial curve] | – |
| Cc1ccccc1C1C(C#N)=C2N=C(N)c3ccccc3N2C2=C1C(=O)CCC2 (configuration not stated) | inconclusive [inhibitor, single point] | – |
| CC(=O)Nc1cccc(NC(=O)c2cc(C)on2)c1 | – | inactive: 95.7% |
| CCc1nn(CC(=O)NCCc2ccc(S(N)(=O)=O)cc2)c(=O)c2cc3sccc3n12 | – | inactive: 24.1% |
| COc1cccc(CN2CC(C(=O)NCc3ccc(Cl)s3)CCC2=O)c1 (configuration not stated) | inconclusive [inhibitor, single point] | – |
| COC(=O)CNC(=O)/C=C/c1ccc(OC)cc1 | – | inactive: 3.54% |
| CCOc1ccccc1NC(=O)CSc1nnc(-c2ccccc2Cl)n1Cc1ccco1 | inconclusive [inhibitor, partial curve, poor fit] | – |
| CCCCNC(=O)c1cn(CC(C)C)c(=O)c2c1c1ccccc1n2C | inconclusive [inhibitor, partial curve] | – |
| O=c1c2sc3nc(N4CCOCC4)c4c(c3c2ncn1CCc1ccccc1)CCCC4 | inconclusive [inhibitor, single point] | – |
| CCOC(=O)CC(=O)CSc1nc(-c2ccc3c(c2)OCO3)cc(C(F)(F)F)c1C#N | inconclusive [inhibitor, single point] | – |
| COc1cc(C)nc(NC(=S)N(C)C(=O)c2ccccc2)n1 | inconclusive [inhibitor, single point] | – |
| Cc1ccc([N+](=O)[O-])cc1NC(=O)Nc1cccc(F)c1 | active: 7.38 µM | – |
| CC(C)c1ccc(OCC(=O)NCc2n[nH]c(=O)c3ccccc23)cc1 | inconclusive [inhibitor, single point] | – |
| O=C(N/N=C/c1cccnc1)c1sc2ccccc2c1Cl | inconclusive [inhibitor, single point] | – |
| CCOc1ccc(CCNC(=O)C2CCCN(c3ncnc4c3nc3n4CCCCC3)C2)cc1 (configuration not stated) | inconclusive [inhibitor, partial curve, poor fit] | – |
| CC(=O)Nc1ccc(S(=O)(=O)NCCC(=O)OCc2nc(N)nc(Nc3ccccc3C)n2)cc1 | inconclusive [inhibitor, partial curve, poor fit] | – |
| Nc1nc(NCc2ccco2)nc(N2CCCCC2)c1[N+](=O)[O-] | – | inactive: 8.51% |
| O=C(NCC(=O)N(Cc1ccco1)C(C(=O)NC1CCCCC1)c1cccnc1)c1ccco1 (configuration not stated) | – | inactive: -7.48% |
| C=CCCC(=O)Nc1nc(C)c(-c2csc(Nc3ccc(Cl)cc3Cl)n2)s1 | inconclusive [inhibitor, partial curve, poor fit] | – |
| CC(=O)Nc1ccc(OC(=O)N(C)c2ccc(C)cc2)cc1 | inconclusive [inhibitor, single point] | – |
| NNC(=O)c1ccc2nc(-c3ccc(Br)cc3)cn2c1 | inconclusive [inhibitor, single point] | – |
